Measured values from PubChem BioAssay AID1645882 (National Center for Advancing Translational Sciences (NCATS), 2021).
Hit rate of the full screen: of about 16,000 compounds, about 120 (0.75%) were called active. Roughly 4% stayed inconclusive and do not appear here. Calls come from the whole dose curve; as a rule, active = well fitted inhibition curve with a large enough effect; inconclusive = small, poorly fitted or top-dose-only effect; inactive = no such curve, though single readings can be large or run the other way. This is one part of the list.

These compounds were tested against Rap guanine nucleotide exchange factor 3 (Homo sapiens) (UniProt O95398) (assay: Validation qHTS for antagonist of cAMP-regulated guanine nucleotide exchange factor 3 (EPAC1)). Conditions: EPAC1 Rap1B-BODIPY-GDP exchange, fluorescence; series mostly up to 150 µM; activity change, negative = inhibition: at the top concentration.
Chain of UniProt O95398 (O95398 whole entry, looked up): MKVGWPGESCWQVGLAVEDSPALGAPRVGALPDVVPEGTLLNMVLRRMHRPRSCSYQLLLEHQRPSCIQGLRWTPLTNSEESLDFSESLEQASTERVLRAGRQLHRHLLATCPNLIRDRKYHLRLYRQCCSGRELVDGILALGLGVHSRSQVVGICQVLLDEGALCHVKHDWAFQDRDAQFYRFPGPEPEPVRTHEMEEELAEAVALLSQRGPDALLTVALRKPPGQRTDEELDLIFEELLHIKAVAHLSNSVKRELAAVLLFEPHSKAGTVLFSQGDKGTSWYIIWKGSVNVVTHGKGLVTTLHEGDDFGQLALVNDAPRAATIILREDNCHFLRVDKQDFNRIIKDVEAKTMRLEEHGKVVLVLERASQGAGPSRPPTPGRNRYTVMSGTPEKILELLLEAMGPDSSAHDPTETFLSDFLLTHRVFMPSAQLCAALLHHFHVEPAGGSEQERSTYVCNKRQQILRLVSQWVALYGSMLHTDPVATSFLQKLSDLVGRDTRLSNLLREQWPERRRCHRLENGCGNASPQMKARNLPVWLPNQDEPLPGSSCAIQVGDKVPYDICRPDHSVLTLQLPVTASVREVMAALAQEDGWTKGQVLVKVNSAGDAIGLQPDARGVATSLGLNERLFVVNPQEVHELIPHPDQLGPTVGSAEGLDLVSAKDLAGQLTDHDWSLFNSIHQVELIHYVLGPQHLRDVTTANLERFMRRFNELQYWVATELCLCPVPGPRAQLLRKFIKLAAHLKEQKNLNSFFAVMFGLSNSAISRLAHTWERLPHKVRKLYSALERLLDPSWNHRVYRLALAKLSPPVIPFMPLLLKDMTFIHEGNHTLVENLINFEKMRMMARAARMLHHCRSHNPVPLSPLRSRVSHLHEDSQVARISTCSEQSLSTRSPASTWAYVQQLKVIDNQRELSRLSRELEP
In short: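 Nucleotide exchange followed as fluorescence loss when BODIPY-GDP leaves Rap1B (480 nm excitation, 540 nm emission), read at 5 min intervals over 30 min. Reaction: 100 nM EPAC1, 250 nM RAP1B-BODIPY-GDP, 50 uM GDP; ATA and DMSO define normalization.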
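Note: plate controls were DMSO for no effect and ATA control for full effect; nearly all actives have a fitted effect of over 75% in size.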

| Compound | activity change, negative = inhibition |
| --- | --- |
| CN1CCC(=O)N([C@H](CN=[N+]=[N-])Cc2ccccc2)CC1 | inactive: -4.27% |
| C#C[C@]1(OC(C)=O)CC[C@H]2[C@@H]3CCC4=C/C(=N/O)CC[C@@H]4[C@H]3CC[C@@]21CC | inactive: -11.6% |
| COc1ccc2[nH]c(C(=O)c3ccccc3)cc2c1 | inactive: 0.833% |
| c1ccc(CNCCNCc2ccccc2)cc1 | inactive: 5.83% |
| O=C(/C=C/C=C/c1ccc2c(c1)OCO2)N1CCCCC1 | inactive: 2.95% |
| CC(C)CCC[C@@H](C)[C@H]1CC(=O)C2=C3CC[C@H]4C[C@@H](O)CC[C@]4(C)[C@H]3CC[C@@]21C | inactive: -4.86% |
| O=c1c2ccccc2nc2n1CCc1c-2[nH]c2ccccc12 | inactive: -4.38% [at 75.8 µM] |
| CCC(=O)OCC(=O)[C@@]1(OC(=O)CC)[C@@H](C)C[C@H]2[C@@H]3CCC4=CC(=O)C=C[C@]4(C)[C@@]3(Cl)[C@@H](O)C[C@@]21C | inactive: -3.39% |
| O=C(O)CCCCCCCCc1cn(CCc2c[nH]c3ccccc23)nn1 | inactive: 10.2% |
| COc1ccc(S[C@@H]2C[C@@H](C(=O)Nc3ccc4nccnc4c3)N(C3Cc4ccccc4C3)C2)cc1 | inactive: -6.71% |
| COc1ccccc1C(=O)N[C@@H]1c2ccccc2C2(CCN(Cc3ccc(C)o3)CC2)[C@H]1O | inactive: 4.24% |
| CC(=O)N1CCC2(CCCN(c3cccc(-c4ccccc4)c3)C2)CC1 | inactive: -26% |
| COc1nc(N)nc2c1ncn2[C@@H]1O[C@H](CO)[C@@H](O)[C@@H]1O | inactive: 28.1% |
| COC(=O)N1CCC2(CC1)CCN(c1ncccn1)CC2 | inactive: 13.7% |
| CN(C)c1ccc(-c2cncnc2-n2ccnc2)cc1 | inactive: 2.96% |
| Cc1cc(C(=O)Nc2ccccc2-c2nc(CNC(=O)C3(C)CCCCC3)c(C)o2)c(C)o1 | inactive: 14.6% |
| O=C(O)[C@H]1CN[C@H](C(=O)O)C1 | inactive: -3.92% |
| CN(C)c1ccc(/C=C/c2cc3ccccc3c[n+]2C)cc1 | inactive: -2.82% |
| CCC1C(=O)NCCN1Cc1ccc2c(c1)CN(Cc1ccc(OC)cc1OC)CCO2 (stereo not given) | inactive: -10.5% |
| O=C(CCCN1CCC(O)(c2cccc(C(F)(F)F)c2)CC1)c1ccc(F)cc1 | inactive |
| CN(C)c1ccc(/C=C/c2cc3ccccc3cn2)cc1 | inactive: 6.84% |
| CN(C)CCCn1cc(C2=C(c3c[nH]c4ccccc34)C(=O)NC2=O)c2ccccc21 | inactive: -12.1% |
| COc1ccccc1N1CCN(CCCNc2cc(=O)n(C)c(=O)n2C)CC1 | inactive |
| COc1cc(-c2c(-c3ccc4c(c3)OCO4)noc2-c2ccsc2)cc(OC)c1OC | inactive: 5.12% |
| CCCCCCCCCCOCCC(=O)O | inactive: 18.4% [at 15.3 µM] |

| Compound | activity change, negative = inhibition |
| --- | --- |
| COc1ccc(CNc2cc(-c3ccccc3OC)ncn2)c(OC)c1 | inactive: -2.68% |
| CC1(C)OC2CC3C4CC(F)C5=CC(=O)C=C[C@@]5(C)[C@@]4(F)C(O)C[C@@]3(C)[C@]2(C(=O)CO)O1 (stereo not given in full) | inactive: 14.4% |
| O=C1CC[C@@H](C(=O)NCC2Cc3cc(Cl)cc(-c4ccc5[nH]ccc5c4)c3O2)N1 (stereo not given in full) | inactive: 8.34% |
| COc1ccccc1CNc1ccnc(-c2ccc(C(=O)N(C)C)cc2)n1 | inactive: 4.2% |
| COc1cc(-c2noc(C)c2/C=C/c2ccc(OC(C)=O)cc2)cc(OC)c1OC | inactive: -3.53% |
| Nc1[nH]c(=S)[nH]c(=O)c1N | inactive: 20.2% |
| CC(CCc1ccc2c(c1)OCO2)NN (stereo not given) | inactive: 23.3% |
| COc1ccc(C2NC(=S)N3C(c4ccc(OC)c(OC)c4)NC(=S)N23)cc1OC (stereo not given) | inactive: 35% |
| c1csc(CNc2ncnc3ccc(-c4ccoc4)cc23)c1 | inactive: 11% |
| CC(O)(COc1ccccc1)c1ccc2c(c1)CN(Cc1ccccn1)CCO2 (stereo not given) | inactive: 1.5% |
| O=c1c(-c2ccccc2)nc2cnc(Oc3ccccc3)nc2n1Cc1cccs1 | inactive: 19.7% |
| COC(=O)CC1C(C)(C)C(O)C2CC3=C4CC(O)OC(c5ccoc5)[C@]4(C)CCC3[C@@]1(C)C2=O (stereo not given in full) | inactive: -11.8% |
| Cc1ccc2nccnc2c1 | inactive: 24% |
| COc1ccccc1N1CCN(CCn2c(=O)[nH]c3c([nH]c4ccccc43)c2=O)CC1 | inactive |
| c1ccc(-n2cnnn2)cc1 | inactive: 24% |
| Cn1c(=O)c2c(ncn2CCO)n(C)c1=O | inactive |
| Cc1cccc2cc(CN(CC3CCCO3)C(=O)c3ccccc3F)c(N(C)C)nc12 (stereo not given) | inactive: 6.47% |
| COc1cc(=O)n2c(c1C(=O)N(C)Cc1nccs1)CCN(Cc1c(F)ccc(F)c1F)CC2 | inactive: 8.22% |
| O=C(O[C@H]1[C@H](Cc2ccccc2)NS(=O)(=O)[C@H]2C[C@@H]3C=C[C@]12O3)c1ccc([N+](=O)[O-])cc1 | inactive: 4.62% |
| CO/N=C(\C(=O)N[C@@H]1C(=O)N2C(C(=O)O)=C(CSc3nc(=O)c(O)nn3C)CSC12)c1csc(N)n1 (stereo not given in full) | inactive: 6.28% [at 75.8 µM] |
| C(=C\c1ccnc2ccccc12)/c1ccc2ccccc2n1 | inactive: 0.616% |
| Cn1c(-c2ccncc2)nc2cc(C(=O)N3CCCC3c3nccs3)cc(NC(=O)C3CCC3)c21 (stereo not given) | inactive: 2.03% |
| COC(C)(C)CCCC(C)C/C=C/C(C)=C/C(=O)O (stereo not given) | inactive: 40.7% |
| COc1cccc(CCNc2ncnc3sc(C(=O)N4CCOCC4)c(C)c23)c1 | inactive: 1.02% |
| CC(C)NC(=O)N1CC2(CCN(C(=O)c3cc(C(F)(F)F)cc(C(F)(F)F)c3)CC2)C1 | inactive: 9.88% |
